Laboratory results reported in the supplement of paper PMC9174493.
This is one part of the list. Single values of this set are uncertain. Values with irradiation are relative to irradiated vehicle.

Assays:
A549-Dual [1] = test: NF-kB reporter (SEAP) activity, viability-corrected, relative to vehicle (fold change vs vehicle); higher = more activation of STING-IRF / NF-kB immune response reporter; conditions: 10 µM
A549-Dual [2] = test: ISRE reporter (Lucia luciferase) activity, viability-corrected, relative to vehicle (fold change vs vehicle); higher = more activation of STING-IRF / NF-kB immune response reporter; conditions: 10 µM
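Throughout, for NF-kB reporter (SEAP) activity, viability-corrected, relative to vehicle: viability correction based on the alamar blue assay, with concentrations leaving 10% survival or less dropped.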

Structure (SMILES) | NF-kB reporter (A549-Dual [1]; irradiation: 8 Gy/4 fr) | NF-kB reporter (A549-Dual [1]; irradiation: none) | ISRE reporter (A549-Dual [2]; irradiation: 8 Gy/4 fr) | ISRE reporter (A549-Dual [2]; irradiation: none)
CC(=O)CCC(=O)O [Levulinic acid] | 0.929 | 0.845 | 0.747 | 0.698
Nc1ncnc2c1ncn2C1OC(COP(=O)(O)O)C(O)C1O.O (centres undefined) [Adenosine 5'-monophosphate monohydrate] | 0.604 | 0.534 | 0.644 | 0.566
CCCC(C(=O)OCCN(CC)CC)(c1ccccc1)c1ccccc1.Cl [Proadifen HCl] | 0.726 | 1.19 | 0.705 | 0.746
Oc1ccc(O)cc1 [Hydroquinone] | 1.38 | 0.858 | 1.38 | 0.713
Br.Cc1ccc(Sc2ccccc2N2CCNCC2)c(C)c1 | 0.458 | 1.35 | 0.284 | 0.416
CC(C)(CO)C(O)C(=O)NCCCO (racemic) [DL-Panthenol] | 1.29 | 0.85 | 1.08 | 0.641
CC1(C)SC2C(NC(=O)C(C(=O)[O-])c3ccccc3)C(=O)N2C1C(=O)[O-].[Na+].[Na+] (centres undefined) [Carbenicillin disodium] | 1.11 | 1.04 | 1.28 | 0.934
NCCCCC(N)C(=O)O.O=C(O)COc1nn(Cc2ccccc2)c2ccccc12 [Bendazac L-lysine] | 1.55 | 0.728 | 1.51 | 0.891
C=C1CCC(O)C/C1=C/C=C1\CCCC2(C)C1CCC2C(C)CCCC(C)C (centres undefined) [cholecalciferol (Vitamin D3)] | 0.528 | 0.811 | 0.369 | 0.487
CC(=O)c1ccc(S(=O)(=O)NC(=O)NC2CCCCC2)cc1 [Acetohexamide] | 1.06 | 0.735 | 0.916 | 0.63
CCCCNc1ccc(C(=O)OCCN(C)C)cc1.Cl [Tetracaine HCl] | 1.01 | 1.12 | 0.9 | 0.903
C=CC(C)(O)CCC=C(C)C (centres undefined) [Linalool] | 0.899 | 1.03 | 0.804 | 0.761
Cc1nnc(SCC2=C(C(=O)O)N3C(=O)C(NC(=O)Cn4cc(Cl)c(=O)c(Cl)c4)C3SC2)s1 (centres undefined) [Cefazedone] | 0.795 | 0.904 | 0.862 | 0.679
CCC1OC(=O)C(C)C(OC2CC(C)(OC)C(O)C(C)O2)C(C)C(OC2OC(C)CC(N(C)C)C2O)C(C)(O)CC(C)CN(C)C(C)C(O)C1(C)O (centres undefined) [Azithromycin] | 0.626 | 1.24 | 0.825 | 1.62
CCOC(=O)C1=C(C)NC(C)=C(C(=O)OCC)C1c1ccccc1/C=C/C(=O)OC(C)(C)C [Lacidipine] | 0.419 | 0.697 | 0.53 | 0.79
O=C(OCc1ccccc1)c1ccccc1 [Benzyl benzoate] | 0.881 | 0.921 | 0.763 | 0.736
Oc1c(Cl)cc(Cl)c(Cl)c1Cc1c(O)c(Cl)cc(Cl)c1Cl [Hexachlorophene] | 0.508 | 1.62 | 0.0713 | 0.444
CN(C)CCC=C1c2ccccc2C=Cc2ccccc21.Cl [Cyclobenzaprine HCl] | 0.755 | 1.63 | 0.828 | 1.2
CC1CC(OC(=O)C(O)c2ccccc2)CC(C)(C)C1 (centres undefined) [Cyclandelate] | 0.825 | 1.37 | 0.619 | 0.815
c1ccc2[nH]c(-c3cscn3)nc2c1 [Thiabendazole] | 1.18 | 1.36 | 1.39 | 1.03
CC1=CC(=O)NS(=O)(=O)O1.[KH] [Acesulfame Potassium] | 0.898 | 0.641 | 0.849 | 0.604
COc1ccc(OC)c(C(O)CNC(=O)CN)c1 (centres undefined) [Midodrine] | 0.874 | 1.5 | 1.04 | 1.06
OCC1OC(OCCc2ccc(O)cc2)C(O)C(O)C1O (centres undefined) [Salidroside] | 1.21 | 0.748 | 1.06 | 0.57
CC(O)Cn1cnc2c1c(=O)n(C)c(=O)n2C (centres undefined) [Proxyphylline] | 1.2 | 0.993 | 1.31 | 1.02
CCCc1nc2c(C)cc(-c3nc4ccccc4n3C)cc2n1Cc1ccc(-c2ccccc2C(=O)O)cc1 [Telmisartan] | 1.36 | 1.11 | 1.98 | 1.75
NNC(=O)c1ccncc1.Nc1ccc(C(=O)O)c(O)c1 [Pasiniazid] | 2.27 | 4.4 | 1.39 | 7.19

Structure (SMILES) | NF-kB reporter (A549-Dual [1]; irradiation: 8 Gy/4 fr) | NF-kB reporter (A549-Dual [1]; irradiation: none) | ISRE reporter (A549-Dual [2]; irradiation: 8 Gy/4 fr) | ISRE reporter (A549-Dual [2]; irradiation: none)
CNCC(O)c1ccc(O)c(O)c1 [L-Adrenaline] | 1.03 | 1.17 | 0.987 | 0.896
Cc1cc(C)nc(NS(=O)(=O)c2ccc(N)cc2)n1 [Sulfamethazine] | 0.795 | 0.843 | 0.928 | 0.793
CS(=O)(=O)O.Cc1c(O)cccc1C(=O)NC(CSc1ccccc1)C(O)CN1CC2CCCCC2CC1C(=O)NC(C)(C)C (centres undefined) [Nelfinavir Mesylate] | 0.405 | 0.744 | 0.386 | 1.07
CCN1CCN(C(=O)NC(C(=O)NC2C(=O)N3C(C(=O)[O-])=C(CSc4nnnn4C)CSC23)c2ccc(O)cc2)C(=O)C1=O.[Na+] (centres undefined) [Cefoperazone sodium] | 1.09 | 0.775 | 1.08 | 0.62
CCCCCCCCCCCCOS(=O)(=O)[O-].[Na+] [Sodium lauryl sulfate] | 0.855 | 0.833 | 0.722 | 0.619
Nc1nc2c(ncn2COC(CO)CO)c(=O)[nH]1 [Ganciclovir] | 0.609 | 0.944 | 0.607 | 0.72
CCN(CC)C(=S)SSC(=S)N(CC)CC [Disulfiram] | 0.642 | 0.793 | 0.8 | 1.01
O=C(O)CNC(=O)c1ccccc1 [Hippuric acid] | 0.768 | 0.826 | 0.817 | 0.655
CN1CCN(c2cc3c(cc2F)c(=O)c(C(=O)O)cn3-c2ccc(F)cc2)CC1.Cl [Difloxacin hydrochloride] | 0.945 | 0.926 | 0.807 | 0.933
COc1cc2nc(N3CCN(C(=O)c4ccco4)CC3)nc(N)c2cc1OC.Cl [Prazosin HCl] | 1.06 | 1.48 | 0.733 | 0.876
O=C(O)C(O)C(O)C(OC1OC(CO)C(O)C(O)C1O)C(O)CO (centres undefined) [Lactobionic acid] | 1.08 | 1.17 | 1.12 | 0.995
CC1OC(OC2C(CO)OC(OC3C(CO)OC(O)C(O)C3O)C(O)C2O)C(O)C(O)C1NC1C=C(CO)C(O)C(O)C1O (centres undefined) [Acarbose] | 0.94 | 0.96 | 0.947 | 0.895
CC/C=C\C/C=C\C/C=C\CCCCCCCC(=O)OC [Methyl linolenate] | 1 | 0.751 | 0.905 | 0.62
CN1CCCC(n2nc(Cc3ccc(Cl)cc3)c3ccccc3c2=O)CC1.Cl (centres undefined) [Azelastine HCl] | 1.07 | 1.14 | 0.749 | 1.56
CCOC(=O)C1=C(COCCN)NC(C)=C(C(=O)OC)C1c1ccccc1Cl (centres undefined) [Amlodipine] | 0.914 | 0.842 | 1.07 | 1.16
Cc1cc(-c2ccccc2)nnc1NCCN1CCOCC1.Cl.Cl [Minaprine dihydrochloride] | 0.761 | 0.624 | 0.74 | 0.49
CC1CNCCCN1S(=O)(=O)c1cccc2cncc(F)c12.Cl.O.O (centres undefined) [Ripasudil (K-115) hydrochloride dihydrate] | 1.97 | 0.884 | 1.57 | 1.04
NS(=O)(=O)c1cc2c(cc1Cl)NC(C1CC3C=CC1C3)NS2(=O)=O (centres undefined) [Cyclothiazide] | 0.669 | 1.21 | 0.699 | 0.846
Nc1nc(NC2CC2)c2ncn(C3C=CC(CO)C3)c2n1 (centres undefined) [Abacavir] | 0.676 | 0.862 | 0.621 | 0.644
CC1(C)SC2C(NC(=O)Cc3ccccc3)C(=O)N2C1C(=O)[O-].[Na+] (centres undefined) [Penicillin G Sodium] | 0.876 | 0.939 | 1.05 | 0.827
CN(Cc1ccc(C(C)(C)C)cc1)Cc1cccc2ccccc12 [Butenafine] | 0.9 | 0.908 | 0.595 | 0.578
Cc1cnc(C(=O)NC2CCCCC/C=C\C3CC3(C(=O)NS(=O)(=O)C3CC3)NC(=O)C3CC(Oc4nc5ccccc5c5ccccc45)CN3C2=O)cn1 (centres undefined) [Paritaprevir (ABT-450)] | 1.36 | 1.08 | 1.39 | 1.72
C[C@@H](O)[C@H](N)C(=O)O [L-Threonine] | 2.32 | 3.58 | 2.17 | 9.33
COC1C(O)CC(=O)OC(C)C/C=C/C=C/C(O)C(C)CC(CC=O)C1OC1OC(C)C(OC2CC(C)(O)C(OC(=O)CC(C)C)C(C)O2)C(N(C)C)C1O (centres undefined) [Kitasamycin] | 0.779 | 1.18 | 0.621 | 0.792
CC(=O)O.CC(N)C(=O)NCC(=O)NC1CSSCC(C(=O)O)NC(=O)C(CO)NC(=O)C(C(C)O)NC(=O)C(Cc2ccccc2)NC(=O)C(C(C)O)NC(=O)C(CCCCN)NC(=O)C(Cc2c[nH]c3ccccc23)NC(=O)C(Cc2ccccc2)NC(=O)C(Cc2ccccc2)NC(=O)C(CC(N)=O)NC(=O)C(CCCCN)NC1=O (centres undefined) [Somatostatin Acetate] | 1.03 | 0.839 | 0.904 | 0.715
